Test results as given in PubChem BioAssay AID1345083 (National Center for Advancing Translational Sciences (NCATS), 2018).
Several values for one entry are separate records, joined by “and”; a condition that tells them apart may be missing. Identical values can stand only once. About 6,200 (6.6%) of roughly 94,000 compounds were called active. Inconclusive means that the source gave no clear call. Such entries were picked first, then a sample of the others. The call rests on the fitted dose curve; in most records, active means well fitted inhibition curve with a large enough effect; inconclusive means small, poorly fitted or top-dose-only effect; inactive means flat fitted curve, though single readings scatter. A potency beside an inconclusive call is a rough fit, not a confirmed value.

Assay: Cytotoxic Profiling in HEK 293 Cell Line of Diverse Libraries Using Quantitative High-Throughput Screening; further: nearly all actives have a fitted effect of over 60% in size
Conditions: HEK 293 viability, ATP luminescence (CellTiter-Glo), 48-72 h; activity change, negative = cytotoxicity: at 115 µM (top of the series) unless noted; series mostly up to 115 µM
How it was run: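 Pintool-delivered compounds were incubated with HEK 293 cells (250 cells/well) at 37 degree Celsius for 48 or 72 hr. ATP-dependent luminescence (CellTiter-Glo) then reported remaining viable cells.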
On the % scale 0 is the no-effect control and ±100 the full control effect; potency means the concentration at half of the fitted maximal effect; tags describe the fitted curve by direction and shape.

Row | Structure (SMILES) | Potency | activity change, negative = cytotoxicity | outcome
1 | CC(C)c1noc(-c2cn(C3CCCN(C(=O)c4cccc(Cl)c4)C3)nn2)n1 (configuration not stated) | inconclusive: 89.1 µM [inhibitor, single point] |  | 
2 | CC(=O)Nc1ccc(NC(=O)Cn2cccc2-c2nc(-c3ccc(F)cc3)no2)cc1 | inconclusive: 50.1 µM [inhibitor, partial curve, poor fit] |  | 
3 | O=C(NCc1ccco1)[C@@H]1Cc2nc[nH]c2CN1Cc1cc2ccccc2o1 | inconclusive: 100 µM [inhibitor, partial curve] |  | 
4 | CN(Cc1cccc(CCN)c1)Cc1cnn(-c2ccc(F)cc2)c1 | inconclusive: 44.7 µM [inhibitor, partial curve, poor fit] |  | 
5 | Cc1nc(N2CCN(C(=O)c3ccc(Cl)cc3)CC2)cc(C(F)(F)F)n1 | inconclusive: 50.1 µM [inhibitor, partial curve, poor fit] |  | 
6 | O=C(Nc1cccc(-c2nnc3n2CCCC3)c1)c1ccc(F)cc1 |  | inactive: -21.4% | 
7 | COCCNc1nc2c(S(=O)(=O)c3ccc(C)c(C)c3)nnn2c2ccccc12 |  | inactive: -29.6% | 
8 | CC(C)C[C@@H]1N[C@H](C(=O)NCc2ccccn2)Cc2c[nH]c3cccc1c23 | active: 28.2 µM |  | 
9 | O=C(c1cc(F)cc(F)c1)N1CCC(Cc2nc(-c3ccc(F)cc3)no2)CC1 | inconclusive: 7.94 µM [inhibitor, full curve, poor fit] |  | 
10 | CCCS(=O)(=O)N1CCc2nn(CC3CC3)c(=O)n2CC1 |  | inactive: 3.05% | 
11 | COc1cccc(C(=O)N2CCC[C@H]2c2nc(-c3ccc(F)cc3)no2)c1 | inconclusive: 89.1 µM [inhibitor, partial curve, poor fit] |  | 
12 | c1ccc(-c2nnc3n2CCN(CC2CCCCC2)C3)cc1 | inactive and inconclusive: 126 µM [inhibitor, single point] |  | 
13 | COc1ccc2nc(C[C@@H]3C[C@@H](C(C)C)[C@H](CNC(=O)COCC(=O)O)C=C3C)[nH]c2c1 |  |  | inactive [at 172 µM]
14 | CC(=O)N1CCC([C@@H]2CN(Cc3ccc(Br)cc3)C[C@H]2CO)CC1 | inconclusive: 89.1 µM [inhibitor, single point] |  | 
15 | C[C@@H]1C(=O)O[C@H]2[C@H]1CC[C@@]1(C)Cc3sc(Nc4ccccc4)nc3[C@@H](C)[C@H]21 | inconclusive: 35.5 µM [inhibitor, full curve] |  | 
16 | O=C(Nc1ccc(Cl)cc1)NC1CCN(c2nccc(Nc3ccccc3Cl)n2)CC1 | inconclusive: 50.1 µM [inhibitor, partial curve, poor fit] |  | 
17 | CCC(CC)N1CC[C@H](CO)[C@H](NC(=O)c2ccccc2)C1 |  | inactive: -15.5% | 
18 | O=C(Nc1cccc(Cl)c1)C1CCCN(c2ccnc3ccnn23)C1 (configuration not stated) | inconclusive: 44.7 µM [inhibitor, partial curve, poor fit] |  | 
19 | CC(=O)NC(C)c1nnc2n1CCN(C(=O)c1ccc(C(F)(F)F)cc1)C2 (configuration not stated) |  | inactive: -12.2% | 
20 | Cn1ncc2c(C(=O)N3CCCCC3)cc(-c3ccc(C(F)(F)F)cc3)nc21 | inconclusive: 56.2 µM [inhibitor, partial curve, poor fit] |  | 
21 | O=C(NCC1CC1)c1cnc2n1CCN(CCc1ccccc1)CC2 | inconclusive: 89.1 µM [inhibitor, partial curve, poor fit] |  | 

Row | Structure (SMILES) | Potency | activity change, negative = cytotoxicity | outcome
22 | COCC1CN(C2CCC2)CC12CCN(C(=O)c1cccc(OC)c1)CC2 (configuration not stated) | inconclusive: 31.6 µM [inhibitor, partial curve, poor fit] |  | 
23 | COc1cc(F)ccc1-c1nc(-c2c(C)noc2C)cc2c1cc(C)n2C | inconclusive: 79.4 µM [inhibitor, partial curve] |  | 
24 | C[C@@H](NC(=O)c1cccn1C)c1onc(-c2ccccc2)c1C(=O)O |  |  | inactive [at 172 µM]
25 | O=C(c1cccc(Cl)c1)N1CCC(n2cc(-c3nc(-c4ccccc4)no3)nn2)C1 (configuration not stated) | active: 39.8 µM |  | 
26 | Cc1ccc(-c2noc([C@@H]3C[C@@H](O)CN3Cc3ccc(S(C)(=O)=O)cc3)n2)cc1F | inconclusive: 100 µM [inhibitor, partial curve] |  | 
27 | O=C(NCCCc1ccccc1)C1(c2ccc(Cl)cc2)CCOCC1 | inconclusive: 56.2 µM [inhibitor, partial curve, poor fit] |  | 
28 | O=C(NC1CCN(c2nc3ncccc3o2)C1)c1ccc(C(F)(F)F)cc1 (configuration not stated) |  | inactive: 0.0056% | 
29 | Cc1noc(-c2ccc(OC3CN(C(=O)c4cccn4C)C3)cc2)n1 | inconclusive: 39.8 µM [inhibitor, partial curve, poor fit] |  | 
30 | COCC1CN(C)CC12CCN(Cc1ccc(OC)c(Cn3ccnc3)c1)CC2 (configuration not stated) | inconclusive: 50.1 µM [inhibitor, partial curve, poor fit] |  | 
31 | CC(=O)N1CCOc2ccc(CCC(=O)NC(C)Cn3ccc(C)n3)cc2C1 (configuration not stated) |  | inactive: -9.46% | 
32 | O=C(C1CCCN([S+](=O)([O-])c2cccs2)C1)N1CCC(N2Cc3cccn3C2=O)CC1 (configuration not stated) | inconclusive: 56.2 µM [inhibitor, partial curve, poor fit] |  | 
33 | O=S(=O)(c1cccnc1)N1CC(c2nc(CCOCC3CCOCC3)no2)C1 |  | inactive: 4.87% | 
34 | c1cc2nc(C3CCNC3)[nH]c2cn1 (configuration not stated) | inactive |  | 
35 | C[S+](=O)([O-])N1CCC(c2nnc3n2C(C(=O)NC2CCCCCC2)CC3)CC1 (configuration not stated) |  | inactive: -0.662% | 
36 | NCCn1cc(C(=O)N2CCN(CCCOc3ccc(F)cc3)CC2)nn1 | inconclusive: 79.4 µM [inhibitor, partial curve, poor fit] |  | 
37 | Cc1ccc(CN2C(=O)OC(c3cccc(NC(=O)c4ccccc4)c3)C2C(=O)NCCC(C)C)cc1 (configuration not stated) | inconclusive: 39.8 µM [inhibitor, full curve, poor fit] |  | 
38 | CC(=O)N1CCC(N2CC[C@@H](CO)N(C)c3ncccc3C2)CC1 | inconclusive: 126 µM [inhibitor, single point] |  | 
39 | O=C(c1ccc[nH]1)N1CCN(C(=O)c2nnn3c2COC(c2ccc(Cl)cc2)C3)CC1 (configuration not stated) |  | inactive: -19.2% | 
40 | COc1ccc(-c2noc(-c3cccn3CC(=O)NC3CCCCC3)n2)cc1F |  | inactive: -25.8% | 
41 | Cc1noc(C)c1C(=O)NC1CCN(c2ccc3nnc(C)n3n2)C1 (configuration not stated) |  |  | inactive
42 | Cc1cc2cc(-c3c(C)noc3C)nc(NCc3cccc(F)c3)c2o1 | inconclusive: 112 µM [inhibitor, partial curve, poor fit] |  | 
